The results in this text go back to the antibiotic and cytotoxicity screens of Wong et al. (2023).

SMILES strings stand for the structures. The list shows a part of the results.

In this assay the test system is S. aureus RN4220. Nature of the assay: growth inhibition call (relative growth <= 0.2). Conditions: 50 µM.
Consider `Cc1ccc(S(=O)(=O)Nc2ccc3c(c2)C(=O)N([C@@H](C)CO)C[C@H](C)[C@H](CN(C)C(=O)CCC(F)(F)F)OCCCC[C@H](C)O3)cc1`, for which the growth inhibition call was “inactive”.

Turning to `CNC(=O)C[C@@H]1CC[C@@H]2[C@H](COC[C@@H](O)CN2C(=O)c2ccc3c(c2)OCO3)O1`, the growth inhibition call is “inactive”.

For the molecule `N[C@H](c1ccc2c(c1)OCCO2)c1ccco1`, the growth inhibition call was “inactive”.

`O=C1NC(=O)/C(=C\c2ccccc2)N1`: the growth inhibition call is “inactive”.

For `O=c1[nH]cc(Nc2ccccc2)c(=O)[nH]1`, the growth inhibition call is “inactive”.

With `C[C@H]1CC/C=C\[C@H]2O[C@@]34C=CCN(Cn5nnc6ccccc65)C(=O)[C@H]3N(CCCO)C(=O)[C@@H]4[C@@H]2C(=O)O1`, the growth inhibition call is “inactive”.

For `C[C@H](CO)N1C[C@H](C)[C@H](CN(C)Cc2ccncc2)Oc2ccc(NS(=O)(=O)c3cn(C)cn3)cc2CC1=O`, the growth inhibition call was “inactive”.

`C[C@@H]1CN([C@@H](C)CO)C(=O)c2cc(NC(=O)Nc3ccccc3)ccc2O[C@@H](C)CCCCO[C@H]1CN(C)Cc1ccccc1`: the growth inhibition call is “inactive”.

Regarding `C[C@@H]1CN([C@@H](C)CO)C(=O)Cc2cc(N(C)C)ccc2O[C@H]1CN(C)S(=O)(=O)c1ccc(Cl)cc1`, the growth inhibition call was “inactive”.

For the molecule `C[C@@H]1CN([C@H](C)CO)C(=O)c2cc(NC(=O)Nc3cccc4ccccc34)ccc2O[C@@H]1CN(C)Cc1ccc(Cl)c(Cl)c1`, the growth inhibition call was “inactive”.

For `C[C@@H]1CN([C@@H](C)CO)S(=O)(=O)c2ccc(C#CCN(C)C)cc2O[C@H]1CN(C)C`, the growth inhibition call is “inactive”.

As for `O=C(OC1Cc2c(O)cc(O)cc2OC1c1cc(O)c(=O)c2c(O)c(O)cc(C3Oc4cc(O)cc(O)c4CC3O)c2c1)c1cc(O)c(O)c(O)c1` (stereo not given), the growth inhibition call is “inactive”.

Regarding `C[C@H]1CN([C@@H](C)CO)C(=O)c2cc(NS(=O)(=O)c3ccc(Cl)cc3)ccc2O[C@@H]1CN(C)C(=O)Nc1ccc(C(F)(F)F)cc1`, the growth inhibition call is “inactive”.

Regarding `C[C@H]1CCCCO[C@H](CN(C)C(=O)C2CCCCC2)[C@@H](C)CN([C@@H](C)CO)C(=O)c2cc(NC(=O)NC3CCCCC3)ccc2O1`, the growth inhibition call is “inactive”.

On to `COCC(=O)Nc1ccc2c(c1)C(=O)N(C)C[C@@H](OC)[C@@H](C)CN(Cc1ccccc1OC)[C@H](C)CO2`, for which the growth inhibition call was “inactive”.

For the molecule `O=C(C[C@H]1CC[C@H]2[C@@H](COC[C@@H](O)CN2Cc2cc(F)ccc2F)O1)N[C@@H]1CCN(Cc2ccccc2)C1`, the growth inhibition call is “inactive”.

In the case of `C[C@@H]1CCCCO[C@@H](CN(C)Cc2ccc(Cl)c(Cl)c2)[C@H](C)CN([C@H](C)CO)C(=O)c2cc(NC(=O)c3ccccc3)ccc2O1`, the growth inhibition call was “inactive”.

Consider `Cc1cccc(C(=O)O)c1O`, for which the growth inhibition call was “inactive”.

Turning to `Cc1cc(-c2cc[nH]n2)c(C)s1`, the growth inhibition call is “inactive”.

On to `Cc1cccc(NC(=O)Nc2ccc3c(c2)C(=O)N(C)[C@H]2CC[C@H](CC(=O)NCc4ccccc4Cl)O[C@H]2CO3)c1`, for which the growth inhibition call is “inactive”.

As for `C[C@@H]1CN([C@H](C)CO)C(=O)c2cc(Br)cnc2O[C@H]1CN(C)C(=O)Nc1ccccc1F`, the growth inhibition call was “inactive”.

Take `C[C@@H]1CCCCO[C@H](CN(C)Cc2ccc(C(F)(F)F)cc2)[C@@H](C)CN([C@H](C)CO)C(=O)c2cc(NS(C)(=O)=O)ccc2O1`: the growth inhibition call was “inactive”.

As for `C[C@@H]1CN([C@@H](C)CO)C(=O)c2cc(C#CCN(C)C)cnc2O[C@H]1CN(C)Cc1ccc(C(=O)O)cc1`, the growth inhibition call was “inactive”.

As to `CO[C@H]1O[C@H](COC(=O)NCCCCCC(=O)NO)[C@H](OC(=O)Nc2ccccc2)[C@H](OC(=O)Nc2ccccc2)[C@H]1OC(=O)Nc1ccccc1`, the growth inhibition call is “inactive”.

Consider `COc1ccc(CN(C)C[C@@H]2Oc3c(NS(=O)(=O)c4cn(C)cn4)cccc3C(=O)N([C@@H](C)CO)C[C@@H]2C)cc1`, for which the growth inhibition call was “inactive”.

As to `O=C(C[C@@H]1C[C@H]2c3cc(NC(=O)c4ccc5c(c4)OCO5)ccc3O[C@H]2[C@H](CO)O1)NCCN1CCCCC1`, the growth inhibition call is “inactive”.

Regarding `OCc1cc(O)c2c(O)c3c(O)cccc3c(O[C@@H]3O[C@H](CO)[C@H](O)[C@@H](O)[C@H]3O)c2c1`, the growth inhibition call was “inactive”.

Consider `Cc1ccc(S(=O)(=O)Nc2ccc3c(c2)C(=O)N([C@H](C)CO)C[C@@H](C)[C@@H](CN(C)C(=O)c2ccccc2)OCCCC[C@@H](C)O3)cc1`, for which the growth inhibition call was “inactive”.

For `COc1ccc(NC(=O)N(C)C[C@H]2OCCCC[C@H](C)Oc3ccc(NS(=O)(=O)c4ccc(OC)cc4)cc3C(=O)N([C@H](C)CO)C[C@@H]2C)cc1`, the growth inhibition call was “inactive”.

Consider `CCCC#Cc1ccc2c(c1)O[C@@H](CN(C)S(=O)(=O)c1cccc(OC)c1)[C@H](C)CN([C@@H](C)CO)S2(=O)=O`, for which the growth inhibition call was “inactive”.

`O[C@H]1[C@H](O)[C@@H](O)[C@H]2O[C@@H]2[C@@H]1O`: the growth inhibition call is “inactive”.

Regarding `C[C@H](O)C#Cc1ccc2c(c1)O[C@H](CN(C)C(=O)c1ccccc1)[C@H](C)CN([C@@H](C)CO)S2(=O)=O`, the growth inhibition call was “inactive”.

Consider `C[C@@H]1CCCCO[C@@H](CN(C)S(=O)(=O)c2ccccc2)[C@@H](C)CN([C@@H](C)CO)C(=O)c2cc(NS(=O)(=O)c3cn(C)cn3)ccc2O1`, for which the growth inhibition call is “inactive”.

In the case of `O=C(NCCn1ncc2c(=O)n(Cc3ccccc3)cnc21)c1ccc(S(=O)(=O)N2CCOCC2)cc1`, the growth inhibition call is “inactive”.

With `C[C@@H]1CN([C@@H](C)CO)S(=O)(=O)c2ccc(C#Cc3ccccc3F)cc2O[C@H]1CN(C)C(=O)Cc1cccnc1`, the growth inhibition call was “inactive”.

As to `C[C@@H]1CN([C@H](C)CO)C(=O)Cc2cc(NC(=O)C3CCCCC3)ccc2O[C@H]1CN(C)Cc1ccc(Cl)c(Cl)c1`, the growth inhibition call was “inactive”.

As to `C[C@H](CO)N1C[C@H](C)[C@@H](CN(C)S(=O)(=O)c2cn(C)cn2)Oc2cc(Br)ccc2S1(=O)=O`, the growth inhibition call is “inactive”.

As to `CO[C@@H]1CN(C)C(=O)c2ccc(NS(=O)(=O)c3cn(C)cn3)cc2OC[C@H](C)N(CCC(F)(F)F)C[C@@H]1C`, the growth inhibition call was “inactive”.

In the case of `CO[C@H]1CN(C)C(=O)c2cc(NC(=O)C3CC3)ccc2OC[C@@H](C)N(C(=O)CN2CCOCC2)C[C@@H]1C`, the growth inhibition call was “inactive”.

Regarding `COc1ccccc1OCC(O)CO` (stereo not given), the growth inhibition call is “inactive”.
